Read counts are not given, so values of variants with three or more changes are uncertain.
B1: OR4K15 (parent)
chain: GUUAACGGUCAUAGGCCAUGGAAACUAGGAGCACCAUUUCGCUGCCAGUGAAGAAAUGAACAAAGAAAAUCUGGGCCAGGCAGGCAUCAAAAGAAAUAGUCUUGCGCUCAACCAGAAAGUCUGUAAUCAUUUUAAGGGUA

Variants of: B1
Test: self-cleavage, relative activity (ratio to wild type); higher = more cleavage; in vitro, sequencing; the parent is a self-cleaving ribozyme

| Variant | self-cleavage |
| --- | --- |
| GUUAACGGUCAUAGGCCAUGGAAACUAGGAGCACCAUCCCGCUGCCAGUGAAGAUAUGAACAAAGAAAAUCUGGGCCAGGCAGGCAUCAAAAGAAAUAGUCUUGCGCUCAACCAGAAAGUCUGUAAUCAUUUUAAGGGUA [U38C U39C A55U] | 1.44 |
| GUUAACGGUCAUAGGCCAUGGAAACUAGGAGCACCAUCCCGCUGCCAGUGAAGAAAUGAACAAAGAAAAUCUGGGCCAGGCAGGCAUCAAAAGAAAUAGUCUUGCGCUCAACCAGAAAGUCUGUGAUCAUUUUAAGGGUA [U38C U39C A125G] | 0.7 |
| GUUAACGGUCAUAGGCCAUGGAAACUAGGAGCACCAUCCCGCUGCCAGUGAAGAAAUGAACAAAGAAAAUCUGGGCCAGGCAGGCAUCAAAAGAAAUAGUCAUGCGCUCAACCAGAAAGUCUGUAAUCAUUUUAAGGGUA [U38C U39C U102A] | 0.85 |
| GUUAACGGUCAUAGGCCAUGGAAACUAGGAGCACCAUCCCGCUGCCAGUGAAGAAAUGAACAAAGAAAAUCUGGGCCAGGCAGGCAUCAAAAGAAAUAGUCUUGCGCUCAACCAGAAAGUCUGUAAUCAUUUUAAGGGCA [U38C U39C U139C] | 1.81 |
| GUUAACGGUCAUAGGCCAUGGAAACUAGGAGCACCAUCUCGCAGCCAGUGAUGAAAUGAACAAAGAAAAUCAGGGCCAGGCAGGCAUCAAAAGAAAUAGUCUUGCGCUCAACCAGAAAGUCUGUAAUCAUUUUAAGGGUG [U38C U43A A52U U72A A140G] | 0.44 |
| GUUAACGGUCAUAGGCCAUGGAAACUAGGAGCACCAUCUCGCAGCCAGUGAAGAAAUGAGCAAAGAAAAUCUGGGCCAGGCAGGCAUCAAAAGAAAUAGUCUUGCGCUCAACCAGAAAGUCUGUAAUCAUUUUAAGGGUA [U38C U43A A60G] | 1.79 |
| GUUAACGGUCAUAGGCCAUGGAAACUAGGAGCACCAUCUCGCAGCCAGGGAAGAAAUGAACAAAGAAAAUCUGGGCCAGGCAGGCAUCAAAAGAAAUAGUCUUGCGCUCAACCAGAAAGUCUGUAAUCAUUUUAAGGGUA [U38C U43A U49G] | 1.28 |
| GUUAACGGUCAUAGGCCAUGGAAACUAGGAGCACCAUCUCGCCGCCAGUGAAGAAAUGAACAGAGAAAAUCUGGGCCAGGCAGGCAUCAAAAGAAAUAGUCUUGCGCUCAACCAGAGAGUGUGUAAUCAUUUUAAGGGUA [U38C U43C A63G A117G C121G] | 2.51 |
| GUUAACGGUCAUAGGCCAUGGAAACUAGGAGCACCAUCUCGCCGCCAGUGAAGAAAUGAACAAAGAAAAUCUGGGCCAGGCAGGCAUGAAAAGAAAUAGUCUUGCGCUCAACCAGAAAGUCUGUAAUCAUUUUAAGGGUA [U38C U43C C88G] | 1.88 |
| GUUAACGGUCAUAGGCCAUGGAAACUAGGAGCACCAUCUCGCCGCCAGUGAAGAAAUGAACAAAGAAAAUCUGGGCCAGGCAGGCAUCAAAAGAAAUAGUCUUGCGCCCAACCAGAAAGUCUGUAAUCAUUUUAAGGGAA [U38C U43C U108C U139A] | 0.02 |
| GUUAACGGUCAUAGGCCAUGGAAACUAGGAGCACCAUCUCGCUGCCAGAGAAGAAAUGAACAGAGAAAAUCUGGGCCAGGCAGGCAUCAAAAGAAAUAGUCUUGCGCUCAACCAGAAAGUCUGUAAUCAUUUUAAGGGUA [U38C U49A A63G] | 1.24 |
| GUUAACGGUCAUAGGCCAUGGAAACUAGGAGCACCAUCUCGCUGCCAGCGAAGAAAUGGACAAAGAAAAUCUGGGCCAGGCAGGCAUCAAAAGAAAUAGUCUUGCGCUCAACCAGAAAGUCUGUAGUCAUUUUAAGGGUA [U38C U49C A59G A126G] | 0.93 |
| GUUAACGGUCAUAGGCCAUGGAAACUAGGAGCACCAUCUCGCUGCCAGCGAAGAAAUGAACAAAGAAAAUCUGGGCCAGGCAGGCAUCAGAAGAAAUAGUCUUGCGCUCAACCAGAAAGUCUGUAAUCAUUUUAAGGGUA [U38C U49C A90G] | 1.92 |
| GUUAACGGUCAUAGGCCAUGGAAACUAGGAGCACCAUCUCGCUGCCAGCGAAGAAAUGAACAAAGAAAAUCUGAGCCAGGCAGGCACCAAAAGAAAUAGUCUUGCGCUCAACCAGAAAGUCUGUAAUCAUUUUAAGGGUA [U38C U49C G74A U87C] | 0.12 |
| GUUAACGGUCAUAGGCCAUGGAAACUAGGAGCACCAUCUCGCUGCCAGCGAAGAAAUGAACAAAGAAAAUCGGGGCCAGGCAGGCAUCAAAAGAAAUAGUCUUGCGCUCAAUCAGAAAGUCUGUAAUCAUUUUAAGGGUA [U38C U49C U72G C112U] | 0.01 |
| GUUAACGGUCAUAGGCCAUGGAAACUAGGAGCACCAUCUCGCUGCCAGCGAAGAAAUGAACAAAGAAAAUCUGGGCCAGGCAGGCAUCAAAAGAAAUAGUCUUGCGCUCAACCAGAAAGUCUGUAACCAUUUUAAGGGUA [U38C U49C U127C] | 0.2 |
| GUUAACGGUCAUAGGCCAUGGAAACUAGGAGCACCAUCUCGCUGCCAGGGAAGAAAUGAACAAAGAAAGUCUGGGCCAGGCAGGCAUCAAAAGAAAUAGCCUUGCGCUCAACCAGAAAGUCUGUAAUCAUUUUAAGGGUA [U38C U49G A69G U100C] | 1.22 |
| GUUAACGGUCAUAGGCCAUGGAAACUAGGAGCACCAUCUCGCUGCCAGUGAAGAAACGAACAAAGAAUAUCUGGGCCAGGCAGGCAUCAAAAGAAAUAGUCUCGCGCUCAACCAGAAAGUCUGUAAUCAUUUUAAGGGUA [U38C U57C A68U U103C] | 1.05 |
| GUUAACGGUCAUAGGCCAUGGAAACUAGGAGCACCAUCUCGCUGCCAGUGAAGAAAUGAACAAAGAAAAACUGGGCCAGGCAGGCAUCAGAAGAAAUAGUCUUGCGCUCAACCAGAAAGUCUGUAAUCAUUUUAAGGGUA [U38C U70A A90G] | 1.12 |
| GUUAACGGUCAUAGGCCAUGGAAACUAGGAGCACCAUCUCGCUGCCAGUGAAGAAAUGAACAAAGAAAACCUGGGCCAGGCAGGCAUCAAAAGAAAUAGUCUUGCGCUCAGCCAGAAAGUCUGUAAUCAUUUUAAGGGUA [U38C U70C A111G] | 0.01 |
| GUUAACGGUCAUAGGCCAUGGAAACUAGGAGCACCAUCUCGCUGCCAGUGAAGAAAUGAACAAAGAAAAUCAGGGCCAGGCAGGCAUCAAAAGAAAUAGUCUUGCGCUCAACCAGAAAGUCUGUAAUCAUUUUAUGAGUA [U38C U72A A135U G137A] | 0.37 |
